{
  "source": "paper PMC6919601",
  "about": "“Identification of Plasmodium dipeptidyl aminopeptidase allosteric inhibitors by high throughput screening” (PLoS ONE, 2019)",
  "note": "In all, about 110,000 compounds went through this assay and about 230 (0.21%) showed an effect of 50% or more. The list shows a part of the results.",
  "data": [
    {"target": "DPAP1 (Plasmodium falciparum, UniProt Q8IIJ9)", "sequence (Q8IIJ9 whole entry, looked up)": "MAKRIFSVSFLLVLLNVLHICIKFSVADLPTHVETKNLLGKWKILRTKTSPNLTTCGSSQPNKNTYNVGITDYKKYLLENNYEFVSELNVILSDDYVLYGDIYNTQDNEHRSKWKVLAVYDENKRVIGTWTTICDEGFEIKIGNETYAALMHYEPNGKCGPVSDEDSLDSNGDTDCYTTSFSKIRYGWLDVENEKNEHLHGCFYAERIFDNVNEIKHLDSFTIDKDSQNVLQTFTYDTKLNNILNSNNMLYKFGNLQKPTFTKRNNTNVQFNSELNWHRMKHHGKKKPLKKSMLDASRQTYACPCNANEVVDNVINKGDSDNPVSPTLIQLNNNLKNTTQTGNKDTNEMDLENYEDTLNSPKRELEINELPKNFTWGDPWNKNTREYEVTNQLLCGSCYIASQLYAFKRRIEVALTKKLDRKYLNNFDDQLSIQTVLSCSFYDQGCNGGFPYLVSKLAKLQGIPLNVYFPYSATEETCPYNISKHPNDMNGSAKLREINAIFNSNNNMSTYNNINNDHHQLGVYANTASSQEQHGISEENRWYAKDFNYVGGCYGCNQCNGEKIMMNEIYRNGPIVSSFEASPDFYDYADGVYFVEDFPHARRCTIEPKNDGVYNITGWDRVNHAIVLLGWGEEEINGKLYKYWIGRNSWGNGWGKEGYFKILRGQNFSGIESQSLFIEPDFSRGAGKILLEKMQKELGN", "test": "primary screen, percent inhibition; read by cleavage of a fluorogenic dipeptide substrate; higher = more effect of the substance", "parameters": "species or system P. falciparum D10 trophozoite lysates; single well", "units": {"% Inhibition @ 10 uM": "%"}, "values": [
      {"compound": "CC1=NC(C)(C)C(C)c2c1ccc1ccccc21", "note": "(stereo not shown);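 note: 30 min substrate incubation versus DMSO and 10 µM JCP410 controls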", "% Inhibition @ 10 uM": 2.01},
      {"compound": "CC1(C)CC(=O)C2=C(C1)OC(N)=C(C#N)C2c1cc(CN2CCOCC2)cs1", "note": "(stereo not shown)", "% Inhibition @ 10 uM": 0.776},
      {"compound": "CCCCN(CC)CCNC(=O)c1cn(C2CCCC2)c(=O)c2c1c1ccccc1n2C", "% Inhibition @ 10 uM": 1.85},
      {"compound": "COc1cc2c(N3C(=O)CCC3=O)c3c(=O)oc(C)cn3c2cc1OC", "% Inhibition @ 10 uM": 1.68},
      {"compound": "COc1ccc(C(=O)NCC2COc3ccccc3O2)c(OC)c1OC", "note": "(stereo not shown)", "% Inhibition @ 10 uM": -8.7},
      {"compound": "Cc1nn(Cc2cccc(C(=O)NCC(C)C)c2)c(C)c1Br", "% Inhibition @ 10 uM": 1.71},
      {"compound": "CCC(Oc1ccccc1)C(=O)Nc1ccc(S(N)(=O)=O)cc1", "note": "(stereo not shown)", "% Inhibition @ 10 uM": 6.15},
      {"compound": "COc1cc(/C=C(\\C#N)c2nn(CCO)c(N)c2C#N)ccc1OCc1ccc(C)cc1", "% Inhibition @ 10 uM": 9.09},
      {"compound": "CC(C)CCNC(=O)[C@@H]1CCCN1C#N", "% Inhibition @ 10 uM": -5.64},
      {"compound": "CCOC(=O)c1c(NC(=O)C2CC(=O)OC23CCCCC3)sc2c1CCCC2", "note": "(stereo not shown)", "% Inhibition @ 10 uM": -0.178},
      {"compound": "Cc1cccc(C(C2=C(O)CC(C)(C)CC2=O)C2C(=O)CC(C)(C)CC2=O)c1", "note": "(stereo not shown)", "% Inhibition @ 10 uM": 4.16},
      {"compound": "Cc1cccc(C)c1NS(=O)(=O)c1cccc2cccnc12", "% Inhibition @ 10 uM": 1.84},
      {"compound": "COC(=O)c1cc(-c2ccc(Br)cc2)c2c(=O)[nH]c(=O)n(C)c2n1", "% Inhibition @ 10 uM": 5.81},
      {"compound": "CC(=O)N1CCN(Cc2ccc(N(C)C)cc2)CC1", "% Inhibition @ 10 uM": -2.95},
      {"compound": "S=C1NCC(c2ccccc2)Oc2ccccc21", "note": "(stereo not shown)", "% Inhibition @ 10 uM": 3.81},
      {"compound": "Cc1ccc(C(=O)c2cnc3cc4c(cc3c2N2CCC(C(N)=O)CC2)OCCO4)cc1C", "% Inhibition @ 10 uM": -0.563},
      {"compound": "O=C(O)c1ccc(/C=C2/NC(=O)N(c3ccccc3)C2=O)cc1", "% Inhibition @ 10 uM": -2.32},
      {"compound": "CCCCOc1ccc(CSCCN)cc1", "% Inhibition @ 10 uM": 0.827},
      {"compound": "Fc1ccc(-c2nnn(Cc3ccc(Cl)c(Cl)c3)n2)cc1", "% Inhibition @ 10 uM": 3.04},
      {"compound": "COc1ccc(-n2nc3c(c2NC(=O)c2ccc(Cl)cc2Cl)CS(=O)(=O)C3)cc1", "% Inhibition @ 10 uM": 5.35},
      {"compound": "N#Cc1c(N)n(-c2cccc3ccccc23)c2nc3ccccc3nc12", "% Inhibition @ 10 uM": 17.2},
      {"compound": "COc1ccc(C2Nc3ccc4ccccc4c3C3=C2C(=O)CC(C)(C)C3)c(OC)c1", "note": "(stereo not shown)", "% Inhibition @ 10 uM": 6.08},
      {"compound": "CNC(=O)/C(C#N)=C/c1c(Oc2ccc(Br)cc2)nc2c(C)cccn2c1=O", "% Inhibition @ 10 uM": 5.21},
      {"compound": "COc1ccc2cc3cc(C(=O)N4CCCC4)sc3nc2c1", "% Inhibition @ 10 uM": 0.675},
      {"compound": "COc1ccc(NC(=O)c2cc(-c3ccc(C)o3)nc3ccccc23)cc1", "% Inhibition @ 10 uM": -0.512},
      {"compound": "Cc1ccc(S(=O)(=O)NCc2ccc(C(=O)N3CCCC3)cc2)cc1", "% Inhibition @ 10 uM": -8.34},
      {"compound": "O=C(NCCc1ccccc1)c1cc(-c2cccnc2)on1", "% Inhibition @ 10 uM": 0.0221},
      {"compound": "Cc1nc(NC2CCCCC2)c2c3c(sc2n1)CCCC3", "% Inhibition @ 10 uM": 0.00784},
      {"compound": "CCc1ccc(N2CC(C(=O)Nc3cc(Cl)ccc3C)CC2=O)cc1", "note": "(stereo not shown)", "% Inhibition @ 10 uM": -4.22},
      {"compound": "C=CCNC(=O)CN(Cc1c(Cl)cccc1Cl)S(=O)(=O)c1ccc(Cl)cc1", "% Inhibition @ 10 uM": 1.17},
      {"compound": "Oc1nc2cc3ccccc3cc2nc1C(F)(F)F", "% Inhibition @ 10 uM": -4.73},
      {"compound": "O=C(/C=C/c1ccc(Cl)cc1Cl)NCC1CCCO1", "note": "(stereo not shown)", "% Inhibition @ 10 uM": -6.7},
      {"compound": "COc1ccc(CCNS(=O)(=O)c2ccc(CN3C(=O)c4cccnc4C3=O)cc2)cc1OC", "% Inhibition @ 10 uM": -5},
      {"compound": "CCCCSCCCNC(=O)C1CCC(CNS(=O)(=O)c2ccc(C)cc2)CC1", "note": "(stereo not shown)", "% Inhibition @ 10 uM": 5.47},
      {"compound": "C=CCN1C(=O)N/C(=C/c2ccc(-c3ccc(C(=O)O)cc3C)o2)C1=O", "% Inhibition @ 10 uM": -10.2},
      {"compound": "Fc1ccc(N2CCN(Cc3ccc4ccccc4c3)CC2)cc1", "% Inhibition @ 10 uM": -4.5},
      {"compound": "Nc1cc(N2CCNCC2)ccc1[N+](=O)[O-]", "% Inhibition @ 10 uM": 0.035},
      {"compound": "CN1C(=O)C(=CNC(Cc2c[nH]c3ccccc23)C(=O)O)C(=O)N(C)C1=O", "note": "(stereo not shown)", "% Inhibition @ 10 uM": -8.71},
      {"compound": "CCC(=O)n1c(=O)sc2cc([N+](=O)[O-])ccc21", "% Inhibition @ 10 uM": -5.34},
      {"compound": "CCOC(=O)N1CCN(C(=O)Cn2ncc3ccc(Cl)cc32)CC1", "% Inhibition @ 10 uM": -1.11},
      {"compound": "N#Cc1c(C(F)(F)F)cc(-c2cccs2)nc1SCC(=O)Nc1ccc(C(N)=O)cc1", "% Inhibition @ 10 uM": -7.55},
      {"compound": "N#Cc1c(NC(=O)CSc2nc(=O)cc(N)n2CCc2ccccc2)sc2c1CCCC2", "% Inhibition @ 10 uM": -1.85},
      {"compound": "CC(=O)c1cnc2nc(C(F)(F)F)nn2c1C", "% Inhibition @ 10 uM": 3.36},
      {"compound": "Cc1ccc(C2CC(C(F)(F)F)n3ncc(C(=O)NCc4cn(C)nc4C)c3N2)cc1", "note": "(stereo not shown)", "% Inhibition @ 10 uM": 4.49},
      {"compound": "Cc1ccc2nc3c(cc(C(=O)NC4CCCC4)c(=N)n3CC3CCCO3)c(=O)n2c1", "note": "(stereo not shown)", "% Inhibition @ 10 uM": -5.14},
      {"compound": "Cc1cccn2c(=O)c(/C=C(\\C#N)C(=O)NCCc3ccccc3)c(Oc3ccc(Cl)cc3)nc12", "% Inhibition @ 10 uM": -3.23},
      {"compound": "OC1CCCN(Cc2cccc(C(F)(F)F)c2)C1", "note": "(stereo not shown)", "% Inhibition @ 10 uM": 3},
      {"compound": "CCc1ccccc1NC(=O)c1cnn(C)c1C", "% Inhibition @ 10 uM": -0.63},
      {"compound": "CC(C)CC(C(=O)NCC#N)c1cccc(-c2cccc(F)c2)c1", "note": "(stereo not shown)", "% Inhibition @ 10 uM": 0.173},
      {"compound": "COc1ccc(CN2CCN(C(=O)Cn3nc(C)n4cccc4c3=O)CC2)c(OC)c1OC", "% Inhibition @ 10 uM": -7.34},
      {"compound": "Cc1ccc(-c2cc(C(=O)NCc3ccccn3)c3ccccc3n2)o1", "% Inhibition @ 10 uM": -1.08},
      {"compound": "CCOc1cc(C)c(Cl)cc1S(=O)(=O)Nc1ccccn1", "% Inhibition @ 10 uM": -1.72},
      {"compound": "CCc1ccc(CNC(=O)Cn2ccc3cc(S(=O)(=O)N4CCCC4)ccc32)cc1", "% Inhibition @ 10 uM": -1.08},
      {"compound": "N#CCNC(=O)C(Cc1cccc(Cl)c1)NC(=O)OCc1ccccc1", "note": "(stereo not shown)", "% Inhibition @ 10 uM": -5.21},
      {"compound": "Cc1cc(C)n(C(=O)c2cc(F)c(F)cc2Cl)n1", "% Inhibition @ 10 uM": -1.8},
      {"compound": "C=CCc1ccc(OCC(O)CO)c(OC)c1", "note": "(stereo not shown)", "% Inhibition @ 10 uM": 0.132},
      {"compound": "COc1ccc(Cl)cc1-c1nnc(S)n1C", "% Inhibition @ 10 uM": -1.33},
      {"compound": "CC(C)/C(=N\\NC(N)=S)c1ccccc1", "% Inhibition @ 10 uM": 1.25},
      {"compound": "O=C(Nc1c(C(=O)O)oc2ccccc12)c1ccccc1", "% Inhibition @ 10 uM": 4.08},
      {"compound": "CCCn1c2ccccc2c2cnn(CC(=O)Nc3cc(-c4ccccc4OCC)no3)c(=O)c21", "% Inhibition @ 10 uM": 2.36},
      {"compound": "CC(=O)c1cc(-c2ccccc2)n(CC(=O)NC(C)c2ccccc2)c1C", "note": "(stereo not shown)", "% Inhibition @ 10 uM": 3.07},
      {"compound": "COc1cc(/C=C2\\N=C(c3cc(F)c(F)cc3Cl)OC2=O)cc(OC)c1OC", "% Inhibition @ 10 uM": 1.25},
      {"compound": "COc1ccccc1OCCSc1nnnn1C1CCCCC1", "% Inhibition @ 10 uM": -1.48},
      {"compound": "CCSC1=C(C#N)C2(CCN(C)CC2)C(C#N)C(=O)N1", "note": "(stereo not shown)", "% Inhibition @ 10 uM": -1.6}
    ]}
  ]
}
